Patent US10370425B2, “Peptide antagonists of the calcitonin CGRP family of peptide hormones and their use” (priority 2012, dated 2019)
Not every detail of the peptide structures is certain; ends, links or a residue may be inferred. Positions of bridges follow the written chain, without caps; N, C: chain ends. Residues, ends and D or L forms follow the SMILES beside them.

Target: T1, amylin receptor, AMY1, a CT (calcitonin) receptor/RAMP1 (receptor-activity modifying protein) complex (Homo sapiens, UniProt O60894+P30988)
T1 construct: host or cells: CHO-K1/AMY1/Gα15
Assay: Calcium flux assay (FLIPR Calcium 4) of inhibition of α-CGRP stimulation in CHO-K1/AMY1/Gα15 cells
Assay type: cell-based
Settings: CHO-K1/AMY1/Gα15 cells stimulated with 32 nM (EC80) α-CGRP; five concentrations from 1 μM, five-fold dilutions, duplicate
Method: Using a calcium flux assay, the dose-dependent inhibitory response of peptide antagonists of the present invention on an amylin receptor, AMY1, a CT (calcitonin) receptor/RAMP1 (receptor-activity modifying protein) complex was determined. The recombinant cell line CHO-K1/AMY1/Gα15 (GenScript, Piscataway, N.J., Catalog No. M00475) was employed in the assay. Peptide antagonist activities were tested, in duplicate, at five different concentrations, starting with 1 μM and serially diluted five-fold, in DMSO. AC187 (SEQ ID NO: 55), a known amylin receptor antagonist (available for example from Tocris Bioscience, Minneapolis, Minn., Catalog No. 3419) was used as a positive control in the assays, and human α-CGRP, a known amylin receptor agonist (SEQ ID NO:56) , (available for example from Tocris Bioscience, Minneapolis, Minn., Catalog No. 3012) was used as a positive control in the assays. The FLIPR® Calcium 4 Assay Kit (Molecular Devices, Sunnyvale, Calif.) was used.
Human α-CGRP having the amino acid sequence, NH2-[…]-NH2 (SEQ ID NO:56) and AC187 having the sequence […] (SEQ ID NO: 55) were employed as negative and positive controls, respectively. Stock solutions were further diluted in HBSS-HEPES buffer to make 5×final control solutions.
CHO-K1/AMY1/Gα15 cells were seeded in a 384-well black wall, clear bottom plate at a density of 20,000 cells/well in 20 μL of growth medium 20 hours prior to the day of the experiment and maintained at 37° C./5% CO2.
Per the assay kit protocol, dye-loading solution (at 2×final concentration) was added into the assay plate, 20 μL per well. Compound solution (at 5 ×final concentration) was added into the assay plate, 10 uL per well. The assay plate was placed into a 37° C. incubator for 1 hour, then left for 15 min at RT. The agonist plate (at 5×EC80 concentration) was placed in Source 2. The total reading time was 120 sec. The agonist was added after 20 seconds reading of the baseline and the fluorescence signal was captured for another 100 seconds (21 s to 120 s).
In screening, cells stimulated with assay buffer were chosen as the background; cells stimulated with agonist (at […] concentration) were chosen as the negative control.
Data were recorded by ScreenWorks (version 3.1) as FMD files and stored on the GenScript computer network for off-line analysis. Data acquisition and analyses was performed using ScreenWorks (version 3.1) program and exported to Excel. The average value of 20 (1 s to 20 s) seconds reading was calculated as the baseline reading and the relative fluorescent units (ΔRFU) intensity values were calculated with the maximal fluorescent units (21 s to 120 s) subtracting the average value of baseline reading.
The IC50 value of AC187 was 8 μM. The inhibitory activity of the tested peptide antagonists was normalized with the negative control (AC187) and reported as % Inhibition, calculated from the following equation: % Inhibition=(ΔRFUcompound−ΔRFUBackground)/(ΔRFUNegative control−ΔRFUBackground) * 100% Inhibition was then plotted along the Y-axis, with the test concentrations as indicated on the X-axis. The peptides were tested at indicated concentrations and stimulated with 32 nM (EC80) α-CGRP (Mean +/− SD, n=2).

T1 sequence (P30988 25-474): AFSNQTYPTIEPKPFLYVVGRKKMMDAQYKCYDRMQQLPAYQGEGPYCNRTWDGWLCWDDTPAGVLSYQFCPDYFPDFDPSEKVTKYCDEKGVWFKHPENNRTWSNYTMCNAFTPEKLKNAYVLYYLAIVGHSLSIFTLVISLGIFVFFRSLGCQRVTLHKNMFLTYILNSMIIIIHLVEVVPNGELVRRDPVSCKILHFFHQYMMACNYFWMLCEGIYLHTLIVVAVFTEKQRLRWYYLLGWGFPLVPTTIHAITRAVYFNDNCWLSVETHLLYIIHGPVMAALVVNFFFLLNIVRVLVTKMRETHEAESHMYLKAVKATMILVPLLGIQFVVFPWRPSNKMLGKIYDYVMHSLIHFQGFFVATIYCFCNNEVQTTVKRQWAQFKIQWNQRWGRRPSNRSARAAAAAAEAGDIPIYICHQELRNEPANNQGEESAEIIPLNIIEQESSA
T1 sequence (O60894 27-148): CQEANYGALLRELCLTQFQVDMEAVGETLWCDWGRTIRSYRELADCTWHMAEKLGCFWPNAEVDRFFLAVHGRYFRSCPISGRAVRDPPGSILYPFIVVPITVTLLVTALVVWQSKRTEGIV

Row | SMILES | IC50 [nM]
1 | CC(C)C[C@H](NC(=O)[C@H](CCCNC(=N)N)NC(=O)CNC(=O)[C@H](CC(C)C)NC(=O)[C@@H](NC(=O)[C@@H]1CSSC[C@H](NC(=O)[C@H](C)N)C(=O)N[C@@H](C(C)C)C(=O)N[C@@H](CC(C)C)C(=O)NCC(=O)N[C@@H](C)C(=O)N1)C(C)C)C(=O)N[C@@H](CO)C(=O)N[C@@H](CCC(N)=O)C(=O)N[C@@H](CCC(=O)O)C(=O)N[C@@H](CC(C)C)C(=O)N[C@@H](Cc1c[nH]cn1)C(=O)N[C@@H](CCCNC(=N)N)C(=O)N[C@@H](CC(C)C)C(=O)N[C@@H](CCC(N)=O)C(=O)N[C@H](C(=O)N[C@@H](Cc1ccc(O)cc1)C(=O)N1CCC[C@H]1C(=O)N[C@@H](CCCNC(=N)N)C(=O)N[C@H](C(=O)N[C@@H](CC(N)=O)C(=O)N[C@H](C(=O)NCC(=O)N[C@@H](CO)C(=O)N[C@@H](CCCCN)C(=O)N[C@@H](C)C(=O)N[C@@H](Cc1ccccc1)C(N)=O)C(C)C)[C@@H](C)O)[C@@H](C)O [compound 5] (H-ACVLGACVLGRLSQELHRLQTYPRTNVGSKAF-NH2; disulfide 2-7 (inferred)) | 75
2 | CC(C)C[C@H](NC(=O)[C@H](CCCNC(=N)N)NC(=O)CNC(=O)[C@H](CC(C)C)NC(=O)[C@@H](NC(=O)[C@@H]1CSSC[C@H](NC(=O)[C@H](C)N)C(=O)N[C@@H](C(C)C)C(=O)N[C@@H](CC(C)C)C(=O)NCC(=O)N[C@@H](C)C(=O)N1)C(C)C)C(=O)N[C@@H](CO)C(=O)N[C@@H](CCC(N)=O)C(=O)N[C@@H](CCC(=O)O)C(=O)N[C@@H](CC(C)C)C(=O)N[C@@H](Cc1c[nH]cn1)C(=O)N[C@@H](CCCNC(=N)N)C(=O)N[C@@H](CC(C)C)C(=O)N[C@@H](CCC(N)=O)C(=O)N[C@H](C(=O)N[C@@H](Cc1ccc(O)cc1)C(=O)N1CCC[C@H]1C(=O)N[C@H](C(=O)N[C@@H](CC(=O)O)C(=O)N1CCC[C@H]1C(=O)N[C@@H](CO)C(=O)N[C@@H](CO)C(=O)N1CCC[C@H]1C(=O)N[C@@H](Cc1c[nH]cn1)C(=O)N[C@@H](CO)C(=O)N[C@@H](Cc1ccc(O)cc1)C(N)=O)C(C)C)[C@@H](C)O [compound 14] (H-ACVLGACVLGRLSQELHRLQTYPVDPSSPHSY-NH2; disulfide 2-7 (inferred)) | 1020
3 | CC[C@H](C)[C@@H]1NC(=O)[C@H](C)NC(=O)[C@H]([C@@H](C)O)NC(=O)[C@H](CC(=O)O)NC(=O)[C@@H](NC(=O)[C@H](C)N)CSSC[C@@H](C(=O)N[C@H](C(=O)N[C@@H](CC(C)C)C(=O)NCC(=O)N[C@@H](CCCNC(=N)N)C(=O)N[C@@H](CC(C)C)C(=O)N[C@@H](CO)C(=O)N[C@@H](CCC(N)=O)C(=O)N[C@@H](CCC(=O)O)C(=O)N[C@@H](CC(C)C)C(=O)N[C@@H](Cc2c[nH]cn2)C(=O)N[C@@H](CCCNC(=N)N)C(=O)N[C@@H](CC(C)C)C(=O)N[C@@H](CCC(N)=O)C(=O)N[C@H](C(=O)N[C@@H](Cc2ccc(O)cc2)C(=O)N2CCC[C@H]2C(=O)N[C@@H](CCCNC(=N)N)C(=O)N[C@H](C(=O)N[C@@H](CC(N)=O)C(=O)N[C@H](C(=O)NCC(=O)N[C@@H](CO)C(=O)N[C@@H](CCCCN)C(=O)N[C@@H](C)C(=O)N[C@@H](Cc2ccccc2)C(N)=O)C(C)C)[C@@H](C)O)[C@@H](C)O)C(C)C)NC1=O [compound 10] (H-ACDTAICVLGRLSQELHRLQTYPRTNVGSKAF-NH2; disulfide 2-7 (inferred)) | 9
4 | CC(C)C[C@H](NC(=O)[C@H](CCCNC(=N)N)NC(=O)CNC(=O)[C@H](CC(C)C)NC(=O)[C@@H](NC(=O)[C@@H]1CSSC[C@H](NC(=O)[C@H](C)N)C(=O)N[C@@H](CC(N)=O)C(=O)N[C@@H]([C@@H](C)O)C(=O)N[C@@H](C)C(=O)N[C@@H](C)C(=O)N1)C(C)C)C(=O)N[C@@H](CO)C(=O)N[C@@H](CCC(N)=O)C(=O)N[C@@H](CCC(=O)O)C(=O)N[C@@H](CC(C)C)C(=O)N[C@@H](Cc1c[nH]cn1)C(=O)N[C@@H](CCCNC(=N)N)C(=O)N[C@@H](CC(C)C)C(=O)N[C@@H](CCC(N)=O)C(=O)N[C@H](C(=O)N[C@@H](Cc1ccc(O)cc1)C(=O)N1CCC[C@H]1C(=O)N[C@@H](CCCNC(=N)N)C(=O)N[C@H](C(=O)N[C@@H](CC(N)=O)C(=O)N[C@H](C(=O)NCC(=O)N[C@@H](CO)C(=O)N[C@@H](CCCCN)C(=O)N[C@@H](C)C(=O)N[C@@H](Cc1ccccc1)C(N)=O)C(C)C)[C@@H](C)O)[C@@H](C)O [compound 4] (H-ACNTAACVLGRLSQELHRLQTYPRTNVGSKAF-NH2; disulfide 2-7 (inferred)) | 12
5 | CC(C)C[C@H](NC(=O)[C@H](CCCNC(=N)N)NC(=O)CNC(=O)[C@H](CC(C)C)NC(=O)[C@@H](NC(=O)[C@@H]1CSSC[C@H](NC(=O)[C@H](C)N)C(=O)N[C@@H](CC(=O)O)C(=O)N[C@@H]([C@@H](C)O)C(=O)N[C@@H](C)C(=O)N[C@@H](C(C)C)C(=O)N1)C(C)C)C(=O)N[C@@H](CO)C(=O)N[C@@H](CCC(N)=O)C(=O)N[C@@H](CCC(=O)O)C(=O)N[C@@H](CC(C)C)C(=O)N[C@@H](Cc1c[nH]cn1)C(=O)N[C@@H](CCCNC(=N)N)C(=O)N[C@@H](CC(C)C)C(=O)N[C@@H](CCC(N)=O)C(=O)N[C@H](C(=O)N[C@@H](Cc1ccc(O)cc1)C(=O)N1CCC[C@H]1C(=O)N[C@@H](CCCNC(=N)N)C(=O)N[C@H](C(=O)N[C@@H](CC(N)=O)C(=O)N[C@H](C(=O)NCC(=O)N[C@@H](CO)C(=O)N[C@@H](CCCCN)C(=O)N[C@@H](C)C(=O)N[C@@H](Cc1ccccc1)C(N)=O)C(C)C)[C@@H](C)O)[C@@H](C)O [compound 3] (H-ACDTAVCVLGRLSQELHRLQTYPRTNVGSKAF-NH2; disulfide 2-7 (inferred)) | 4
6 | CC(C)C[C@@H]1NC(=O)[C@H](C)NC(=O)[C@H]([C@@H](C)O)NC(=O)[C@H](CC(=O)O)NC(=O)[C@@H](NC(=O)[C@H](C)N)CSSC[C@@H](C(=O)N[C@H](C(=O)N[C@@H](CC(C)C)C(=O)NCC(=O)N[C@@H](CCCNC(=N)N)C(=O)N[C@@H](CC(C)C)C(=O)N[C@@H](CO)C(=O)N[C@@H](CCC(N)=O)C(=O)N[C@@H](CCC(=O)O)C(=O)N[C@@H](CC(C)C)C(=O)N[C@@H](Cc2c[nH]cn2)C(=O)N[C@@H](CCCNC(=N)N)C(=O)N[C@@H](CC(C)C)C(=O)N[C@@H](CCC(N)=O)C(=O)N[C@H](C(=O)N[C@@H](Cc2ccc(O)cc2)C(=O)N2CCC[C@H]2C(=O)N[C@@H](CCCNC(=N)N)C(=O)N[C@H](C(=O)N[C@@H](CC(N)=O)C(=O)N[C@H](C(=O)NCC(=O)N[C@@H](CO)C(=O)N[C@@H](CCCCN)C(=O)N[C@@H](C)C(=O)N[C@@H](Cc2ccccc2)C(N)=O)C(C)C)[C@@H](C)O)[C@@H](C)O)C(C)C)NC1=O [compound 9] (H-ACDTALCVLGRLSQELHRLQTYPRTNVGSKAF-NH2; disulfide 2-7 (inferred)) | 9
7 | CC(C)C[C@H](NC(=O)[C@H](CCCNC(=N)N)NC(=O)CNC(=O)[C@H](CC(C)C)NC(=O)[C@@H](NC(=O)[C@@H]1CSSC[C@H](N)C(=O)N[C@@H](CO)C(=O)N[C@@H](CC(N)=O)C(=O)N[C@@H]([C@@H](C)O)C(=O)N[C@@H](C)C(=O)N[C@@H](C)C(=O)N1)C(C)C)C(=O)N[C@@H](CO)C(=O)N[C@@H](CCC(N)=O)C(=O)N[C@@H](CCC(=O)O)C(=O)N[C@@H](CC(C)C)C(=O)N[C@@H](Cc1c[nH]cn1)C(=O)N[C@@H](CCCNC(=N)N)C(=O)N[C@@H](CC(C)C)C(=O)N[C@@H](CCC(N)=O)C(=O)N[C@H](C(=O)N[C@@H](Cc1ccc(O)cc1)C(=O)N1CCC[C@H]1C(=O)N[C@@H](CCCNC(=N)N)C(=O)N[C@H](C(=O)N[C@@H](CC(N)=O)C(=O)N[C@H](C(=O)NCC(=O)N[C@@H](CO)C(=O)N[C@@H](CCCCN)C(=O)N[C@@H](C)C(=O)N[C@@H](Cc1ccccc1)C(N)=O)C(C)C)[C@@H](C)O)[C@@H](C)O [compound 8] (H-CSNTAACVLGRLSQELHRLQTYPRTNVGSKAF-NH2; disulfide 1-7 (inferred)) | 16
